# Source: PubChem BioAssay AID504466 (National Center for Advancing Translational Sciences (NCATS), 2011)
# Among all 330,000 compounds or so, about 4,200 (1.3%) were called active. Inconclusive means that the source gave no clear call. Such entries were picked first, then a sample of the others. Calls come from the whole dose curve; as a rule, active = well fitted activation curve with a large enough effect; inconclusive = small, poorly fitted or top-dose-only effect; inactive = no such curve, though single readings can be large or run the other way. Potencies of inconclusive entries are doubtful fits and often do not repeat.
# Test: qHTS screen for small molecules that induce genotoxicity in human embryonic kidney (HEK293T) cells expressing luciferase-tagged ELG1; note: nearly all actives have a fitted effect of over 60% in size; for activity change, positive = activation: % of control where 0% means no effect
# Details: HEK293T ELG1-luciferase reporter, luminescence, 16 h; series mostly up to 46 µM; activity change, positive = activation: at the top concentration
# In short: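 Quantitative HTS format in 1536-well plates. HEK293T ELG1-luciferase reporter cells receive test compound and are incubated 16 hr at 37 °C, 5% CO2; ONE-Glo added, 30 min room temperature, then luminescence read.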
# Potency is the fitted concentration of half-maximal effect; tags give direction and shape of the fitted curve.
Compound,"activity change, positive = activation",Potency
Nc1cc(N)nc(SCC(=O)NCC(=O)Nc2ccc(F)c(F)c2F)n1,inactive: -2.87%,
COc1ccc(C(=O)c2c3ccc(OC)cc3[n+]([O-])n2Cc2ccc(C(N)=O)cc2)cc1,,"inconclusive: 13 µM [activator, partial curve, poor fit]"
COc1n[nH]c(C(=O)Nc2nc3ccccc3s2)c1[N+](=O)[O-],,active: 16.4 µM
Cn1cccc1C(=O)NCCc1ccccc1,,active: 2.31 µM
CCOC(=O)c1c(C)[nH]c(C(=O)COC(=O)c2ccco2)c1C,inactive: 12.3%,
Clc1ccccc1-c1nc(-c2ccccc2)n[nH]1,,"inconclusive: 8.2 µM [activator, partial curve]"
CC(=O)Nc1nnc(-c2ccc3c(c2)CCCC3)o1,,"inconclusive: 9.2 µM [activator, partial curve]"
CSc1nc(O)c(/C=C2\C=Nc3ccccc32)[nH]1,,"inconclusive: 18.4 µM [activator, partial curve, poor fit]"
COc1ccc(Cn2c(C3CC3)nc3ccc(NC(=O)c4ccco4)cc3c2=O)cc1,,"inconclusive: 6.51 µM [activator, partial curve]"
O=C(O)c1ccc(-c2nc3ccccc3s2)o1,inactive: 12.3%,
CC1N(C)c2cc(NC(=O)c3ccco3)ccc2C1(C)C (stereo not drawn),,"inconclusive: 8.2 µM [activator, partial curve]"
CC(=O)c1cccc(N=Nc2c(-c3ccccc3)[nH]n(-c3ccccc3)c2=O)c1,inactive: -8.13%,
O=C(COc1ccc(CO)cc1Cl)Nc1ccc(F)cc1,,active: 0.366 µM
CCCn1cnc2cc(NCc3ccc(Br)cc3)ccc21,,"inconclusive: 9.2 µM [activator, partial curve, poor fit]"
CCCCC(=O)NC(=S)Nc1nnn(CCC)n1,inactive: -19.4%,
O=C1/C(=C\c2ccc([N+](=O)[O-])cc2)CCc2ccccc21,,active: 7.31 µM
CCN(CC)c1ccc(N=Nc2nn(C)c(C)c2[N+](=O)[O-])cc1,,active: 5.8 µM
CCCOc1ccc(Oc2ccc(S(=O)(=O)N3CCN(C)CC3)cn2)cc1,,"inconclusive: 23.1 µM [activator, single point]"
C=C(C)CSc1cc(C)nc2c(-c3ccccc3)c(C)nn12,inactive: -2.46%,
C=C1SC(=Nc2c(C)cc(C)cc2C)N(C(=O)c2sc3ccccc3c2Cl)C12CCCCC2,inactive: -7.15%,
CCOc1ccc(-c2cc(C(=O)O)c3ccccc3n2)cc1,,active: 3.26 µM
Cc1ccc(C)c(N(CC(=O)NCCc2ccccc2)C(=O)CCC(=O)Nc2ccccn2)c1,inactive: -0.804%,
COc1ccc(CN2CCC(n3nccc3NC(=O)C3CC3)CC2)cc1O,inactive: 5.75%,
